From PubChem BioAssay AID624417 (National Center for Advancing Translational Sciences (NCATS), 2012)
Among all 410,000 compounds or so, about 6,400 (1.6%) were called active. Inconclusive results, whose numbers are uncertain, are shown with a selection of clear calls. Calls come from the whole dose curve; as a rule, active = well fitted inhibition curve with a large enough effect; inconclusive = small, poorly fitted or top-dose-only effect; inactive = no such curve, though single readings can be large or run the other way. No potency is given beside an inconclusive call; the fits are too rough.

target: Glucagon-like peptide 1 receptor (Homo sapiens) (UniProt P43220); experiment: qHTS of GLP-1 Receptor Inverse Agonists (Inhibition Mode); settings: HEK293 GLP-1R CRE-luciferase, luminescence, 24 h, GLP-1R form is constitutively active; series mostly up to 38.3 µM; note: nearly all actives have a fitted effect of over 55% in size
Procedure, shortened: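 Inverse agonists were sought by their lowering of basal cAMP reporter luciferase output in HEK293 cells stably carrying constitutively active human GLP-1R, after 24 h compound treatment.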
Potency is the fitted concentration of half-maximal effect; tags give direction and shape of the fitted curve.

UniProt P43220, sequence (P43220 whole entry, looked up): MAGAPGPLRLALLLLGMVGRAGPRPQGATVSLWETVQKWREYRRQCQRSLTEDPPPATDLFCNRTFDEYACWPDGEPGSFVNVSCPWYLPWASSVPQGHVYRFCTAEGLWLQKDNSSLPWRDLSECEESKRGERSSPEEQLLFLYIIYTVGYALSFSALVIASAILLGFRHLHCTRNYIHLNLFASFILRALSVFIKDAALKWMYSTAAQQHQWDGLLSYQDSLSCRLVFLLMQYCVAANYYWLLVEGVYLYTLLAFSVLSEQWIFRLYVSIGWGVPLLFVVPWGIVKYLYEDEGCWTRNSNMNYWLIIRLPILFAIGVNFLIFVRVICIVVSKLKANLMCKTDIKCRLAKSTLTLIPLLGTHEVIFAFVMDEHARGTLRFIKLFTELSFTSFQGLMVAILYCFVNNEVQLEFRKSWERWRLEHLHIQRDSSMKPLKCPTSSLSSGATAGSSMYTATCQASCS

| Compound | Potency |
| --- | --- |
| O=S(=O)(c1ccc2[nH]c3c(c2c1)CCCC3)N1CCCCC1 | inconclusive [inhibitor, single point] |
| CCn1c(COc2ccc(Cl)cc2)nnc1SC1CCc2ccccc2C1=O (stereo not drawn) | inconclusive [inhibitor, full curve, poor fit] |
| O=C(c1ccco1)N1CCN(c2ncnc3c2[nH]c2ccc(Br)cc23)CC1 | inconclusive [inhibitor, single point] |
| CCn1c(=O)c(C(=O)CN(C)CC(=O)Nc2cccc(F)c2)c(N)n(Cc2ccccc2)c1=O | inconclusive [inhibitor, single point] |
| COc1cc(C(=O)OCC(=O)N2c3ccccc3NC(=O)C2(C)C)ccc1OCC(C)C | inconclusive [inhibitor, single point] |
| CCC12CN3CC(C)(CN(C1)C3c1c[nH]c3ccccc13)C2=O (stereo not drawn) | inactive |
| O=C(NCCCN1CCOCC1)c1ccc2c(=O)n(Cc3ccc(Cl)cc3)c(=S)[nH]c2c1 | active: 2 µM |
| O=C(N/N=C/C=C/c1ccc(Br)cc1)C(O)c1ccccc1 (stereo not drawn) | inactive |
| CC1CCN(c2ncnc3c2cnn3-c2ccccc2)CC1 | inconclusive [inhibitor, single point] |
| O=[N+]([O-])c1cc(/C=N/N2CCCCC2)ccc1Cl | inconclusive [inhibitor, single point] |
| CCn1nc(C)cc1C(=O)Sc1ccc(Cl)cc1Cl | inconclusive [inhibitor, single point] |
| Cc1ccc(C)c(NS(=O)(=O)c2cc(C(=O)Nc3ccccc3-c3ccccc3)ccc2Cl)c1 | inconclusive [inhibitor, partial curve, poor fit] |
| CC(=O)/C(=N\Nc1ccc(C)cc1)N1CCOCC1 | inconclusive [inhibitor, full curve, poor fit] |
| COc1ccc(/C=C\c2onc(C)c2S(=O)(=O)N2CCC(C(=O)Nc3ccc(C)cc3C)CC2)cc1 | inactive |
| CC1=C(C(=O)Nc2ccc(C)cc2C)C(c2ccc(O)cc2)n2nnnc2N1 (stereo not drawn) | inconclusive [inhibitor, single point] |
| Nc1ccc(N2CCCCC2)c(S(=O)(=O)Nc2ccccc2Cl)c1 | inconclusive [inhibitor, single point] |
| O=C(C1CCN(Cc2ccc(F)cc2)CC1)N(CCc1ccccc1)Cc1ccccc1 | inconclusive [inhibitor, single point] |
| CSc1ccc(CN(C)CC(=O)Nc2ccc(C)cc2Br)cc1 | inconclusive [inhibitor, partial curve, poor fit] |
